# Test results published in the supplement of paper PMC11417369.
# The list shows a part of the results.
# Tested on: PF3D7_0420300 AP2 domain 1 (GST-tagged)
# Test: gcPBM binding intensity (ln(normalized median fluorescence intensity)); higher = stronger DNA binding
# Method in brief: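 In this array assay, P. falciparum DNA-binding domains with a GST tag, expressed in E. coli, were applied for 1 h to primer-extended double-stranded 36-bp intergenic genomic probes and negative controls on an Agilent 4 × 180k array. Bound protein was visualised with Alexa488 anti-GST antibody at 488 nm. Binding intensity is the highest Masliner-normalised natural-log median intensity across replicate spots of either probe orientation.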
row,Sequence,gcPBM binding intensity (ln)
1,CATATCCTTACGAACTGTACAATATTAAGAATAAAA [XGTACX_site1651],9.14
2,ATATATTCAATTCATACACACACAATTTAAGAATGA [CACACA_site9289],9.79
3,GTAAAAAGATAATGAAGTACATTTTTTCATTTTTAT [XGTACX_site5579],9.1
4,AAAAAAAAAAAACACACACACACACCCATATACATA [CACACA_site2664],10.3
5,ATTTATTTTTTTATCACACATTTGTGAAATGTGCAT [CACACA_site5869],9.29
6,ATAAAAAAATCAGACACACACACGTAAACCCATACA [CACACA_site2773],9.91
7,ACATATTTATATATGTGTACATAAATATTCTTTTAA [XGTACX_site8238],8.98
8,ATATATATATTTATAGTGCATTTATATTAAAATATC [GTGCAC_site9818],9.2
9,TCAAATAGAAAATAAAGTACTTAATTTTTAGGAACA [XGTACX_site1446],9.08
10,TTGAATATTTAAAAACGTACATAAAATTATTTGATT [XGTACX_site5422],9.01
11,ATATTTATATTTTTTTGTACATATATAATTTTATAA [XGTACX_site4151],9.22
12,ATATATATTTATATATGTACATATTAATATATATAT [XGTACX_site1144],9.12
13,TTATAGTATTTATAATGTACAAATATATTTTATTTT [XGTACX_site5015],9.09
14,CAATGTTAATATAATACACACAATATGTATTTGTCT [CACACA_site1162],9.49
15,ATCCATCTTTTATATAGTACTTTATAATATATATAT [XGTACX_site8064],9.53
16,TTGTTAATATATATATGTACTTATTTATTTATTTAT [XGTACX_site2274],9.37
17,TTTGAATTTTTTAACACACACATGTCTGGATATATA [CACACA_site1645],9.78
18,TTTTCCTTAACACACGTTTATATAAAAAATTAAAAT [XGTACX_negctrl_site115],8.98
19,GAAAAAAAAAAAAAAAGTACATGTCATAAATTGTAT [XGTACX_site1461],9.2
20,GAGCTTTGGATGAAAGCATGCGATGAATGGATAAAA [TGCATGCA_site786],8.95
21,AAATTAAAATATATATGTACATATATATATATATAT [XGTACX_site7844],8.94
22,ATAAAAATAAATAAATGTACATATATATATATATAT [XGTACX_site1277],9.13
23,TAAATAGGAAAACCTATACACACTTTAAAAAAAATA [CACACA_site1621],9.25

row,Sequence,gcPBM binding intensity (ln)
1,TAAATTAAAAAAAAAAACAAAAAAAAAGCAACAAAA [CACACA_negctrl_site1318],9.52
2,AACACAAATAAGTATTTGGATTATATTACATTTATA [CACACA_negctrl_site465],9.18
3,CTGTAAAATGTGATGGTGCATATTAATTTAGTTGTA,9.41
4,ATTTATTTCAATAAACTTCTTTTCTTTAACAATTAC [CACACA_negctrl_site1222],9.08
5,TATAAAAATGTGTATGTACACACTTTATTTTTAATA [CACACA_site2532],9.24
6,AAATATAAAAATAGCACACATATATACATATATATA [CACACA_site56],9.52
7,TGTCCAATTTTTTATCGTACATAATATATAAATAAA [XGTACX_site1705],9.16
8,AGTATTTCCATATGTACATGCAAAAGGAAAGATATA [TGCATGCA_site850],9.15
9,TATTTTTCCCTATGCACACACACCGTATATATAATA [CACACA_site4758],10
10,AGAAACGTAAGTTATACACACATGTCAAAAGAAAAA [CACACA_site312],9.51
11,AAAAAAAAAAGACACACACACAAATACAAATACATA [CACACA_site6334],10
12,TTTTAAACAAAAAATTGTACAATTAGTGTATAATCC [XGTACX_site778],9.19
13,AAAGGAAATTAAAATTGATTACATATATAAAAAAAC [XGTACX_negctrl_site196],9.4
14,AATTTAATATAATGCACACATAAAAAAAAAAAAAAA [CACACA_site123],9.21
15,CCAAAGAAATATAATACACACAAGAATATATTGGAT [CACACA_site6018],9.75
16,AATGAAAAATGTATCGTTAAAGGGTATCTTAAGGAT [XGTACX_negctrl_site222],9.36
17,AAGTATTACAACCACACACACACCTATATATTATAT [CACACA_site4158],10.1
18,ACTTGTTTTCAATGTAAAATACAATTTTCATTTATT [CACACA_negctrl_site435],9.18
19,ATTTAAGGGGTGTATGCACACGACTATTCCGTATGA [CACACA_site4738],9.19
20,AATATTTTAAGGCACACACACAAAAAAAAAAAAAAA [CACACA_site2890],9.55
21,TAATTTAGTATCTTTACATGCGGGCATTATGTCATA [TGCATGCA_site167],9.08
22,TTTATTAATAGACACACACACACACGCAAAATAAAA [CACACA_site6255],10.2
23,ATAGGCACTTTTTGCACACGTATGAATAACAAAATA [CACACA_site5069],9.25

row,Sequence,gcPBM binding intensity (ln)
1,TGAAAATTTTAATGAGGAAATAAAATAAATATAATA [GTGCAC_negctrl_site159],9.14
2,CCAAAGGGGGTATACTGTACATATAGTGGTTATATA [XGTACX_site1515],9.66
3,CTTTATTATAAGATTACACACATGTGTTATAATTTA [CACACA_site3169],9.39
4,TTGACCTTAAGAAGGTTGCACTAATCATTCAAAGTT,8.96
5,CCATTTATTATTTGGGGTACATTTAATTAATATTTT [XGTACX_site5940],9.45
6,ATTAGTAAGAATCATTGTACATTATAATATGTGGTA [XGTACX_site1341],9.27
7,TTTTTAAAAAAGTAAAGTACAAAAAAAAGGAATATC [XGTACX_site588],9.52
8,TGCTTCCTTAGGAATGTACACACATATATAATATGT [CACACA_site8048],9.41
9,AAAGAAATACAATGATGTACATTTAAAAAAAATTAA [XGTACX_site4324],9.21
10,ACAAGAAAATATATTTGTACATATATAATTTTATTT [XGTACX_site548],9.2
11,TGTAAAACTGAAAAGGGTACATATAAATATATATAT [XGTACX_site69],9.28
12,ATTTATTTTTATATAACACACAAAGTATAATATAAC [CACACA_site3582],9.44
13,ATATATTTATATTTATGTACATATCTTTATTTACGT [XGTACX_site6800],9.42
14,ATATATATATCGATCTGTACATATATTTATAGACAT [XGTACX_site4236],9.25
15,ACGTTGAAGAAATACACATGCATATTCTATATATAT [TGCATGCA_site76],9.32
16,TATATTTTTTAAAAAGCATGCAAAAAATAATGATCA [TGCATGCA_site48],8.88
17,GTATAATATGAACACACACACACACGCAAAAAAAAA [CACACA_site7036],10.1
18,CTCTTATGCTAGGAAGTGCAATAGTATGGGTACCAC,9.07
19,TCATTTTATTTTTTCACACACACATATATATATATA [CACACA_site3333],9.96
20,TAATATATATAAACATGTACAAATCAAAAACAAAAG [XGTACX_site4076],9.7
21,TTAACTCAAGAGTGTACACATATATATATATATATA [CACACA_site4334],9.14
22,AATACCCATTTTAGTACACACTTAAAAAATTATTTT [CACACA_site5611],9.3
23,ATTCTTTTTTTTTGGAAATGTATTTTTATGTTTTGT [TGCATGCA_negctrl_site426],9.45

row,Sequence,gcPBM binding intensity (ln)
1,ATTTTAGATGAAAAAGCACACAACATATATATATAT [CACACA_site2295],9.61
2,TAACTAAGGAATAATACACACAGAAATATAGATTTA [CACACA_site6293],9.72
3,TCTATTTTCTTATGAATGCACTAATTTATAAAACGT,9.04
4,CAACAAAAATTATTTACACACAAAAGGCAAGGAAAT [CACACA_site1971],10.1
5,TTTATAAACAAATGAACACACAAACATATATATATA [CACACA_site5713],9.67
6,CTATTATAATATTTTACACACCATGTAAGATATATA [CACACA_site7492],9.3
7,TTTATTTTATCATTTGCACACGCACCCAGACATAAA [CACACA_site4347],9.39
8,TTTTTTCATTAGAAAACATGCAAATGTTTTTCACTT [TGCATGCA_site127],8.98
9,CTTTTTTTAATATGCACACATATATTTTATATATTA [CACACA_site2077],9.44
10,TATTCATTTATAAGCTGTACACATTAATTTGAGCTA [XGTACX_site3616],9.08
11,ATTAGGATATATTAAAGTACTAATATAATACATTTT [XGTACX_site7386],9.15
12,ATATAGTATTAATTTGCATGTCATGTATTAGGTCGA [TGCATGCA_site540],9.25
13,TTTTATATTTTTTGTGGTACATTTAGAGAACCAAAA [XGTACX_site1695],8.74
14,TGTAAGTTGATATAATGTACATGTTTGATTTTTTTT [XGTACX_site7687],9.4
15,AAAAAGGGTATTATTACACACACGTAAATATTAATA [CACACA_site101],9.61
16,AGATTTATACAAATATGTACACACTAAATATATATT [XGTACX_site864],9.44
17,ATAATTATCATAGGATGTACATATTTATTTTGTATA [XGTACX_site7797],9.22
18,ATATGTTAAATTATTCGTACGTAAAAAAAAATGGAT [XGTACX_site3465],9.43
19,TAATTTCATCATATTTGTTCCTTCTCAAAATTTTTT [CACACA_negctrl_site217],9.21
20,GCATTATTTACCACAACACACAAATATTTACCAATC [CACACA_site2669],9.59
